The record followed here is publication PMC3199943, “Screening the MayBridge Rule of 3 Fragment Library for Compounds That Interact with the Trypanosoma brucei myo-Inositol-3-Phosphate Synthase and/or Show Trypanocidal Activity” (Molecular Biology International, 2011).

The structures appear in SMILES notation.

In the first test the test system is cultured bloodstream T. brucei (strain 427). Briefly: microbe, parasite or virus in culture. The settings on record: Trypanosoma brucei, read-out: T. brucei Alamar Blue. (Alamar Blue is a resazurin reagent that responds to reducing activity.)
Consider `Nc1ccccc1OC(F)(F)F` [compound 418, 2‐(trifluoromethoxy)aniline], for which the viability at 500 µM stood at 86.8 ± 2.2%.
Same read-out and setting: with `Cc1ccc(N)nc1` [compound 16, 5‐methylpyridin‐2‐amine] the figure was 66.2 ± 6.2%; with `Nc1nc(-c2ccccc2)ns1` [compound 423, 3‐phenyl‐1,2,4‐thiadiazol‐5‐amine], 59.6 ± 12.3%; with `Nc1cc(F)cc(F)c1` [compound 89, 3,5‐difluoroaniline], 112 ± 10.7%.
Turning to `NCCc1cccc2c1OCC2` [compound 293, 2,3‐Dihydrobenzo[b]furan‐7‐ethylamine], the viability at 500 µM came out at 31.2 ± 11.9%.
Same read-out and setting: as for `OCc1cccc2c1OCC2` [compound 186, 2,3-Dihydrobenzo[b]furan-7-methanol], the figure is 33.8 ± 5.2%; as for `Cc1nc(CC(=O)O)cs1` [compound 243, 2‐(2‐methyl‐1,3‐thiazol‐4‐yl)acetic acid], 97.4 ± 8.3%; as for `COc1ccc(OC)c(CN)c1` [compound 329, 2,5‐dimethoxybenzylamine], 24.1 ± 3.4%.
Same read-out and setting: with `OCc1ccc(-n2cccn2)cc1` [compound 385, [4‐(1H‐pyrazol‐1‐yl)phenyl]methanol] the figure was 78.3 ± 5%; with `OCc1ccc(N2CCCC2)cc1` [compound 427, [4‐(1‐pyrrolidinyl)phenyl]methanol], 27.3 ± 5.7%; with `COC(=O)c1ccc(N)c(C)c1` [compound 304, methyl 4‐amino‐3‐methylbenzoate], 87 ± 11.8%.
For `O=C1CSC(c2cccs2)C1` (stereo not drawn) [compound 482, 5‐(2‐thienyl)tetrahydrothiophen‐3‐one], the viability at 500 µM is 40.9 ± 5.9%.
Same read-out and setting: with `Nc1cc2ccccc2cn1` [compound 153, isoquinolin‐3‐amine] the figure was 44.8 ± 5%; with `OCc1cccc(Oc2ccccn2)c1` [compound 630, [3‐(pyrid‐2‐yloxy)phenyl]methanol], 81.4 ± 5.7%.
Same read-out and setting: as for `Nc1ccc(C(F)(F)F)cn1` [compound 283, 5‐(trifluoromethyl)pyridin‐2‐amine], the figure is 99.7 ± 14.7%; as for `O=C(O)c1ccc(-n2cccc2)cc1` [compound 512, 4‐(1H‐pyrrol‐1‐yl)benzoic acid], 42.1 ± 22.9%; as for `Cc1cc(C)on1` [compound 4, 3,5‐dimethylisoxazole], 117 ± 5.1%.
The same measure, in the same setting: with `Cc1cc(C(=O)O)c(C)o1` [compound 130, 2,5‐dimethyl‐3‐furoic acid] the figure was 98.1 ± 6.8%.
For the compound `O=C(O)C1CCNCC1` [compound 90, piperidine‐4‐carboxylic acid], the viability at 500 µM was found to be 75.1 ± 12.4%.
As to `CCOC(=O)c1csc(C)n1` [compound 356, ethyl 2‐methyl‐1,3‐thiazole‐4‐carboxylate], the viability at 500 µM was 101 ± 3.7%.
`OCCc1c[nH]c2ccccc12` [compound 277, 2‐(1H‐indol‐3‐yl)ethan‐1‐ol]: the viability at 500 µM was 31.4 ± 8.9%.
Still for that read-out and setting: as for `NC(=S)C1=Cc2ccccc2OC1` [compound 558, 2H‐chromene‐3‐carbothioamide], the figure is 41.2 ± 13.3%; as for `O=C(O)CCc1ccco1` [compound 131, 3‐(2‐furyl)propanoic acid], 52.6 ± 15.5%.
On the same count and under the same terms, with `CC1CNC(C)CN1` (stereo not drawn) [compound 36, 2,5‐dimethylpiperazine] the figure was 81.1 ± 18.6%; with `CCC1CCC(N)CC1` (stereo not drawn) [compound 84, 4‐ethylcyclohexanamine], 95.1 ± 12.8%; with `OCc1ccccc1-c1cccs1` [compound 543, (2‐thien‐2‐ylphenyl)methanol], 30.9 ± 1.2%.
Same read-out and setting: with `OCc1ccc(Oc2ccccc2)o1` [compound 540, (5‐phenoxy‐2‐furyl)methanol] the figure was 29.9 ± 2.8%.
On to `CC(=O)c1ccc(C#N)cc1` [compound 155, 4‐acetylbenzonitrile], for which the viability at 500 µM is 99.3 ± 17.3%.
On the same count and under the same terms, as for `COC(=O)c1sccc1N` [compound 241, methyl 3‐aminothiophene‐2‐carboxylate], the figure is 81.2 ± 4.1%.
On the same count and under the same terms, as for `Oc1cccc(N2CCOCC2)c1` [compound 447, 3‐morpholinophenol], the figure is 70.4 ± 22.1%; as for `NC(=O)NCc1ccc(F)cc1` [compound 334, N‐(4‐fluorobenzyl)urea], 92.1 ± 14%; as for `OCc1ccccc1Cl` [compound 143, (2‐chlorophenyl)methanol], 88.5 ± 19.7%.
Same read-out and setting: with `CCOC(=O)Cc1csc(C)n1` [compound 494, ethyl 2‐(2‐methyl‐1,3‐thiazol‐4‐yl)acetate] the figure was 107 ± 6.4%; with `c1ccc2c(c1)CCOC2` [compound 110, 3,4‐dihydro‐1H‐benzo[c]pyran], 109.8 ± 0.6%; with `O=C(O)CCc1cccs1` [compound 237, 3‐(2‐thienyl)propanoic acid], 85.3 ± 11.8%.
In the case of `OCc1ccc(N2CCOCC2)cc1` [compound 578, (4‐morpholin‐4‐yl‐phenyl)‐methanol], the viability at 500 µM turned out to be 93 ± 7.9%.
As to `CNCc1cccc(-c2cccnc2)c1` [compound 606, N‐methyl‐N‐(3‐pyridin‐3‐ylbenzyl)amine], the viability at 500 µM is 43.2 ± 12.9%.
On to `O=C1CCOc2ccc(F)cc21` [compound 318, 6‐fluorochroman‐4‐one], for which the viability at 500 µM is 88.6 ± 12.2%.
On the same count and under the same terms, as for `O=C(O)c1ccccc1-c1ccco1` [compound 520, 2-(2-furyl)benzoic acid], the figure is 35.4 ± 8.7%; as for `O=C(O)c1csc2ccccc12` [compound 432, 1‐benzothiophene‐3‐carboxylic acid], 83.1 ± 17.9%.
Same read-out and setting: with `N#Cc1ncccc1N1CCCCC1` [compound 517, 3‐piperidin‐1‐ylpyridine‐2‐carbonitrile] the figure was 32.2 ± 8.8%; with `N#CC(c1ccccc1)N1CCOCC1` (stereo not drawn) [compound 638, 2‐morpholino‐2‐phenylacetonitrile], 94.8 ± 10%.
For the compound `Nc1ccncc1` [compound 2, pyridin‐4‐amine], the viability at 500 µM was 98.8 ± 6.7%.
On the same count and under the same terms, as for `N#Cc1ccccc1Oc1ccccc1` [compound 591, 2‐phenoxybenzonitrile], the figure is 100 ± 1.9%; as for `Cn1ccc(C(F)(F)F)n1` [compound 181, 1‐methyl‐3‐(trifluoromethyl)‐1H‐pyrazole], 105 ± 8%; as for `OCc1ccc2occc2c1` [compound 168, 1‐benzofuran‐5‐ylmethanol], 34.7 ± 8%.
Consider `CCc1nc(C)c[nH]1` [compound 25, 2‐ethyl‐4‐methyl‐1H‐imidazole], for which the viability at 500 µM was 89.6 ± 2.5%.
In the case of `COC(=O)c1cccc(C)c1` [compound 185, methyl 3‐methylbenzoate], the viability at 500 µM was determined as 110 ± 12.7%.
In the case of `Clc1cn2ccsc2n1` [compound 253, 6‐chloroimidazo[2,1‐b][1,3]thiazole], the viability at 500 µM came out at 52.8 ± 5.5%.
On the same count and under the same terms, with `NCc1ccc(C(F)(F)F)cc1` [compound 390, 4‐(trifluoromethyl)benzylamine] the figure was 24 ± 4.6%.

Staying with this test, now noted: Trypanosoma brucei, read-out: T. brucei Alamar Blue (% survival).
As to `OCc1cccc2c1OCC2` [compound 186, 2,3-Dihydrobenzo[b]furan-7-methanol], the viability at 500 µM came to 33.8 ± 5.2%.
Same read-out and setting: with `O=C(O)c1ccccc1-c1ccco1` [compound 520, 2-(2-furyl)benzoic acid] the figure was 35.4 ± 8.7%.

Still in this test, the particulars now being: Trypanosoma brucei, read-out: T. brucei Alamar Blue (% survival), compound 0.5 mM; percentage of controls.
`O=C(O)C1CCCNC1` (stereo not drawn) [compound 91, 3-piperidinecarboxylic acid]: the viability at 500 µM came out at 36.1 ± 11%.

The same test, now with this note: Trypanosoma brucei, read-out: T. brucei Alamar Blue, Supplementary Table 1; compound 0.5 mM; percentage of controls in the absence of compound; mean ± SD (n=3) or SE (n=2).
On to `Oc1noc2ccccc12` [compound 112, benzo[d]isoxazol‐3‐ol], for which the viability at 500 µM came out at 100 ± 3%.
As for `O=C(O)C1CCCNC1` (stereo not drawn) [compound 91, 3-piperidinecarboxylic acid], the viability at 500 µM was 36.1 ± 11%.

The same test, now with this note: Trypanosoma brucei, read-out: T. brucei ED50, ED50 ± SD (n = 4).
As for `OCc1cccc2c1OCC2` [compound 186, 2,3-Dihydrobenzo[b]furan-7-methanol], the IC50 was 370 ± 40 µM.
On the same count and under the same terms, with `O=C(O)c1ccccc1-c1ccco1` [compound 520, 2-(2-furyl)benzoic acid] the figure was 76.1 ± 6 µM.
